Results as given in publication PMC3646048.
No constants are given. Whether binding was seen depends on the method and setting. For some of these results: Binding seen in cells or lysates may run through a third protein. Some binding calls cover weakened binding; strength is not graded here. For some of these results: Sequences can lack the tags named with a protein.

Sequences of proteins named here, by UniProt entry; tags and fusion partners are left off. Residues count along the entry.
UniProt P48436: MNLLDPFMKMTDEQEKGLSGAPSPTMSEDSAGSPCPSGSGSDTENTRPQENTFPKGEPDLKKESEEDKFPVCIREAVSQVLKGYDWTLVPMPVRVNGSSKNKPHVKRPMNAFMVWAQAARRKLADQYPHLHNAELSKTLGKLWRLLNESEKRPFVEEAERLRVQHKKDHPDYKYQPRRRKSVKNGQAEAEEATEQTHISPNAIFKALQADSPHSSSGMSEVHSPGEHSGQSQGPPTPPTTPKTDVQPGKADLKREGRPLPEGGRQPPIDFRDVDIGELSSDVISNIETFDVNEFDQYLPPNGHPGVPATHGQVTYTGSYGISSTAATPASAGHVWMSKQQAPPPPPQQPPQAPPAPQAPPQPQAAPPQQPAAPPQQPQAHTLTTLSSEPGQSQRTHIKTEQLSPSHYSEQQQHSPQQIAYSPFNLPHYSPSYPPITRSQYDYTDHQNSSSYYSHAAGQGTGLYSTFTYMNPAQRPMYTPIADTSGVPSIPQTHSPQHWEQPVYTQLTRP
UniProt Q8VIM5: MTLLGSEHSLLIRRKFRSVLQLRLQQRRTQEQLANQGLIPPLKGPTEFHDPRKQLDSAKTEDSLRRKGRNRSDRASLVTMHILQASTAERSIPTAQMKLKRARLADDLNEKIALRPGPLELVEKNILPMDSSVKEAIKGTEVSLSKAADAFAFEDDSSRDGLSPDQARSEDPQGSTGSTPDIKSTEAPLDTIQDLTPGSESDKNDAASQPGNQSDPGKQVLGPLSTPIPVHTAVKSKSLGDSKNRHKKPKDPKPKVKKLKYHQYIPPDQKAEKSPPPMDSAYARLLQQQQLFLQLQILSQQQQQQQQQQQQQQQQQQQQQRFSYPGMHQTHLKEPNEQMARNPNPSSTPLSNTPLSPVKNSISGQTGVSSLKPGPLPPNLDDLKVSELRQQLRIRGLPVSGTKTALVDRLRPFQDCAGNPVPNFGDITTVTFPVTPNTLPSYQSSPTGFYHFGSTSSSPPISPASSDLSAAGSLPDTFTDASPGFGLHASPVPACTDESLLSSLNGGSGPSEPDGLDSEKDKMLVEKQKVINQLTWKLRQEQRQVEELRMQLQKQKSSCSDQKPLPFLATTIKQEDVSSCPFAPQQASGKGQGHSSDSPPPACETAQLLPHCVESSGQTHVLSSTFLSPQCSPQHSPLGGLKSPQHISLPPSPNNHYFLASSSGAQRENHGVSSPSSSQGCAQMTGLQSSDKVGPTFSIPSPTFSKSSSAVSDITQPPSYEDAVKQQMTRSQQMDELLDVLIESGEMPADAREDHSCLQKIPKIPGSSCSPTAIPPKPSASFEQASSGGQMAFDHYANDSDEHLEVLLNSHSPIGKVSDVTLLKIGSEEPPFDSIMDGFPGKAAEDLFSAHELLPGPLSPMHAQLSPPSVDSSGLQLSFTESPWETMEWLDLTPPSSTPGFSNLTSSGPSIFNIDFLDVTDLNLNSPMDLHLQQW
UniProt O54941: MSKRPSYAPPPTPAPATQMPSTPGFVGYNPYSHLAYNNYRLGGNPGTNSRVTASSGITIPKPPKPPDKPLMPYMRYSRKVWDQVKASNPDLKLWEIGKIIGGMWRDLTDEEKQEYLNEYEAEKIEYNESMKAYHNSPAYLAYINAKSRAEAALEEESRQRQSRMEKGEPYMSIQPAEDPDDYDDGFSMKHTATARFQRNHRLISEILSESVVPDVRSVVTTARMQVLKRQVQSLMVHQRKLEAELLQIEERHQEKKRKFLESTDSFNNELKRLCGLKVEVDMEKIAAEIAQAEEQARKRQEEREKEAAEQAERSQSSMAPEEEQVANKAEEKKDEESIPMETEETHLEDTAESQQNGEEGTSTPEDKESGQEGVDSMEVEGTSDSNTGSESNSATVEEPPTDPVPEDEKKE
SOX9 clone clA45 (amino acids 1-168) (Q04887, residues 1-168): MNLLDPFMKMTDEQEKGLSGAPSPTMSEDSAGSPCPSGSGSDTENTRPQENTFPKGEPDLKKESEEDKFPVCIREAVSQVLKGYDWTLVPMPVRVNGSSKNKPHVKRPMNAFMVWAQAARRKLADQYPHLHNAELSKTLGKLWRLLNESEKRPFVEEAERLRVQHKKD
SOX9 clone clA47 (amino acids 1-163) (Q04887, residues 1-163): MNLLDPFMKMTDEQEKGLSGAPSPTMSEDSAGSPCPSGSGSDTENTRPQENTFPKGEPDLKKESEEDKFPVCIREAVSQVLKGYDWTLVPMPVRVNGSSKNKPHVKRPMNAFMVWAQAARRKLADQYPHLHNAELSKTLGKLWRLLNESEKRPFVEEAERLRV

B1: in vitro translated N-TSHZ3 (domain or fragment, UniProt Q8CGV9 1-483)
chain: MPRRKQQAPRRAAAYVSDELKAAALVEDDVEPEEQAADGEPSAKYMCPEKELSKACPSYQNSPAAEFSSHEMDSESHISETSDRMADFESSSIKNEEETKEVQVPLEDTTVSDSLEQMKAVYNNFLSNSYWSNLNLNLHQPSSENNGGSSSSSSSSSSSCGSGSFDWHQSAMAKTLQQVSQNRMLPEPSLFSTVQLYRQSSKLYGSIFTGASKFRCKDCSAAYDTLVELTVHMNETGHYRDDNHETDNNNPKRWSKPRKRSLLEMEGKEDAQKVLKCMYCGHSFESLQDLSVHMIKTKHYQKVPLKEPVTPVAAKIIPAARKKPSLELELPSSPDSTGGTPKATLSDASDALQKNSNPYITPNNRYGHQNGASYAWHFEARKSQILKCMECGSSHDTLQELTAHMMVTGHFIKVTNSAMKKGKPIMETPVTPTITTLLDEKVQSVPLAATTFTSPSNTPASVSPKLAVEIKKEVDKEKAVPDE
modifications: 35S-methionine labelled
B2: HA-tagged TSHZ3 full length (protein, UniProt Q8CGV9 1-1081)
chain: MPRRKQQAPRRAAAYVSDELKAAALVEDDVEPEEQAADGEPSAKYMCPEKELSKACPSYQNSPAAEFSSHEMDSESHISETSDRMADFESSSIKNEEETKEVQVPLEDTTVSDSLEQMKAVYNNFLSNSYWSNLNLNLHQPSSENNGGSSSSSSSSSSSCGSGSFDWHQSAMAKTLQQVSQNRMLPEPSLFSTVQLYRQSSKLYGSIFTGASKFRCKDCSAAYDTLVELTVHMNETGHYRDDNHETDNNNPKRWSKPRKRSLLEMEGKEDAQKVLKCMYCGHSFESLQDLSVHMIKTKHYQKVPLKEPVTPVAAKIIPAARKKPSLELELPSSPDSTGGTPKATLSDASDALQKNSNPYITPNNRYGHQNGASYAWHFEARKSQILKCMECGSSHDTLQELTAHMMVTGHFIKVTNSAMKKGKPIMETPVTPTITTLLDEKVQSVPLAATTFTSPSNTPASVSPKLAVEIKKEVDKEKAVPDEKPKEREKPSEEEEKYDISSKYHYLTENDLEESPKGGLDILKSLENTVTSAINKAQNGTPSWGGYPSIHAAYQLPNMMKLSLGSSGKSTPLKPMFGNSEIVSPTKTQTLVSPPSSQTSPMPKTNFHAMEELVKKVTEKVAKVEEKMKEPEGKLSPPKRATPSPCSSEQSEPIKMEASSDGSFKSQENSPSPPRDACKEASPSAEPVENGKELVKPLSGGLSGSTAIITDHPPEQPFVNPLSALQSVMNIHLGKAAKPSLPALDPMSMLFKMSNSLAEKAAVATPPPLQAKKAEHLDRYFYHVNNDQPIDLTKGKSDKGCSLGSGLLSPTSTSPATSSSTVTTAKTSAVVSFMSNSPLRENALSDISDMLKNLTESHTSKSSTPSSISEKSDIDGATLEEAEESTPAQKRKGRQSNWNPQHLLILQAQFAASLRQTSEGKYIMSDLSPQERMHISRFTGLSMTTISHWLANVKYQLRRTGGTKFLKNLDTGHPVFFCNDCASQIRTPSTYISHLESHLGFRLRDLSKLSTEQINNQIAQTKSPSEKLVTSSPEEDLGTTYQCKLCNRTFASKHAVKLHLSKTHGKSPEDHLLFVSELEKQ
B3: N-TSHZ3-HA (domain or fragment, UniProt Q8CGV9 1-483)
chain: B1 chain
B4: in vitro translated TSHZ3fl (protein, UniProt Q8CGV9 1-1081)
chain: B2 chain
modifications: 35S-methionine labelled
B5: TSHZ3-trunc-HA (domain or fragment, UniProt Q63HK5 183-1081)
chain: RMLPEPSLFSTVQLYRQSSKLYGSIFTGASKFRCKDCSAAYDTLVELTVHMNETGHYRDDNHETDNNNPKRWSKPRKRSLLEMEGKEDAQKVLKCMYCGHSFESLQDLSVHMIKTKHYQKVPLKEPVTPVAAKIIPATRKKASLELELPSSPDSTGGTPKATISDTNDALQKNSNPYITPNNRYGHQNGASYAWHFEARKSQILKCMECGSSHDTLQELTAHMMVTGHFIKVTNSAMKKGKPIVETPVTPTITTLLDEKVQSVPLAATTFTSPSNTPASISPKLNVEVKKEVDKEKAVTDEKPKQKDKPGEEEEKCDISSKYHYLTENDLEESPKGGLDILKSLENTVTSAINKAQNGTPSWGGYPSIHAAYQLPNMMKLSLGSSGKSTPLKPMFGNSEIVSPTKNQTLVSPPSSQTSPMPKTNFHAMEELVKKVTEKVAKVEEKMKEPDGKLSPPKRATPSPCSSEVGEPIKMEASSDGGFRSQENSPSPPRDGCKDGSPLAEPVENGKELVKPLASSLSGSTAIITDHPPEQPFVNPLSALQSVMNIHLGKAAKPSLPALDPMSMLFKMSNSLAEKAAVATPPPLQSKKADHLDRYFYHVNNDQPIDLTKGKSDKGCSLGSVLLSPTSTAPATSSSTVTTAKTSAVVSFMSNSPLRENALSDISDMLKNLTESHTSKSSTPSSISEKSDIDGATLEEAEESTPAQKRKGRQSNWNPQHLLILQAQFAASLRQTSEGKYIMSDLSPQERMHISRFTGLSMTTISHWLANVKYQLRRTGGTKFLKNLDTGHPVFFCNDCASQIRTPSTYISHLESHLGFRLRDLSKLSTEQINSQIAQTKSPSEKMVTSSPEEDLGTSYQCKLCNRTFASKHAVKLHLSKTHGKSPEDHLLYVSELEKQ

Key:
[1] = molecular target: T1, HA-tagged TSHZ3 full length (UniProt Q8CGV9); test: co-IP; reciprocal: HEK293T cells transiently transfected; immunoprecipitation with anti-HA (3F10) and protein G beads; immunoblot with anti-Flag
T1 sequence: B2 chain

[2] = molecular target: T2, TSHZ3 (bait of the yeast two-hybrid screen) (UniProt Q8CGV9); test: two-hybrid; yeast two-hybrid screen with TSHZ3 as bait; 84 independent clones; screen previously reported in ref. 20
T2 sequence: B2 chain

GST-SOX9 = GST-SOX9 (UniProt P48436); test: pull-down; GST fusion protein on glutathione beads (pre-incubated in 1% BSA) incubated overnight at 4°C with in vitro translated 35S-methionine labelled protein; SDS-PAGE and autoradiography; only the target purified
GST-MYOCD = GST-MYOCD (UniProt Q8VIM5); test: as above
Flag-tagged SOX9 (human) = Flag-tagged SOX9 (human) (UniProt P48436); test: co-IP; HEK293T cells transiently transfected; lysis buffer 50 mM Tris-HCl pH 7.6, 200 mM NaCl, 1 mM EDTA, 0.25% Na-deoxycholate; anti-Flag agarose M2 beads overnight at 4°C; immunoblot with anti-HA

Row | Molecule | binding [2] | binding (Flag-tagged SOX9 (human)) | further results
1 | Flag-tagged SOX9 (from UniProt P48436 1-509) |  |  | binding [1]: binds
2 | SMARCE1/BAF57 (yeast two-hybrid clones) (from UniProt O54941 1-411) | binds |  | 
3 | SOX9 clone clA45 (amino acids 1-168) (from UniProt Q04887 1-168) (domain or fragment) | binds |  | 
4 | SOX9 clone clA47 (amino acids 1-163) (from UniProt Q04887 1-163) (domain or fragment) | binds |  | 
5 | B1 |  |  | binding (GST-SOX9): binds; binding (GST-MYOCD): binds
6 | B2 |  | binds | 
7 | B3 |  | binds | 
8 | B4 |  |  | binding (GST-SOX9): binds
9 | B5 |  | no binding | 
